Test results reported in the supplement of paper PMC8728848.
This is one part of the list.

Legend:
Assay in all cases: glycan array binding signal (z-score within array); higher = stronger binding
Settings in all cases: glycan notation: IUPAC condensed, linker removed
Neu5Ac(a2-8)Neu5Ac = target: Neu5Ac(a2-8)Neu5Ac
How it was run: (§1)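 Arrays were curated from the Consortium for Functional Glycomics database, 3228 in total, and kept only where the protein sequence was available. Binding is expressed as a within-array Z-score. This score was averaged across arrays of the same protein sequence at different concentrations or buffers and across linkers, and negative values can be read as non-binding.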

[1] = target: Neu5Ac(a2-8)Neu5Ac(a2-3)Gal(b1-3)GalNAc(b1-4)[Neu5Ac(a2-3)]Gal(b1-4)Glc
How it was run: as §1

[2] = target: Neu5Ac(a2-8)Neu5Ac(a2-3)Gal(b1-3)GalNAc(b1-4)[Neu5Ac(a2-8)Neu5Ac(a2-3)]Gal(b1-4)Glc
How it was run: as §1

[3] = target: Neu5Ac(a2-8)Neu5Ac(a2-3)Gal(b1-4)Glc
How it was run: as §1

[4] = target: Neu5Ac(a2-8)Neu5Ac(a2-3)Gal(b1-4)GlcNAc
How it was run: as §1

[5] = target: Neu5Ac(a2-8)Neu5Ac(a2-3)[Gal(b1-3)GalNAc(b1-4)]Gal(b1-4)Glc
How it was run: as §1

[6] = target: Neu5Ac(a2-8)Neu5Ac(a2-3)[GalNAc(b1-4)]Gal(b1-4)Glc
How it was run: as §1

[7] = target: Neu5Ac(a2-8)Neu5Ac(a2-8)Neu5Ac
How it was run: as §1

[8] = target: Neu5Ac(a2-8)Neu5Ac(a2-8)Neu5Ac(a2-3)Gal(b1-4)Glc
How it was run: as §1

[9] = target: Neu5Ac(a2-8)Neu5Ac(a2-8)Neu5Ac(a2-3)[Gal(b1-3)GalNAc(b1-4)]Gal(b1-4)Glc
How it was run: as §1

[10] = target: Neu5Ac(a2-8)Neu5Ac(a2-8)Neu5Ac(a2-3)[GalNAc(b1-4)]Gal(b1-4)Glc
How it was run: as §1

[11] = target: Neu5Ac(a2-8)Neu5Ac(a2-8)Neu5Ac(a2-8)Neu5Ac(a2-3)[GalNAc(b1-4)]Gal(b1-4)Glc
How it was run: as §1

[12] = target: Neu5Ac(a2-8)Neu5Gc(a2-3)Gal(b1-4)GlcNAc
How it was run: as §1

[13] = target: Neu5Ac(b2-6)Gal(b1-4)GlcNAc
How it was run: as §1

Neu5Ac(b2-6)GalNAc = target: Neu5Ac(b2-6)GalNAc
How it was run: as §1

[14] = target: Neu5Ac9Ac(a2-3)Gal(b1-3)GlcNAc
How it was run: as §1

[15] = target: Neu5Ac9Ac(a2-3)Gal(b1-4)GlcNAc
How it was run: as §1

[16] = target: Neu5Ac9Ac(a2-6)Gal(b1-4)GlcNAc
How it was run: as §1

[17] = target: Neu5Gc(a2-3)Gal(b1-3)GlcNAc
How it was run: as §1

[18] = target: Neu5Gc(a2-3)Gal(b1-3)[Fuc(a1-4)]GlcNAc
How it was run: as §1

Neu5Gc(a2-3)Gal(b1-4)Glc = target: Neu5Gc(a2-3)Gal(b1-4)Glc
How it was run: as §1

[19] = target: Neu5Gc(a2-3)Gal(b1-4)GlcNAc
How it was run: as §1

[20] = target: Neu5Gc(a2-3)Gal(b1-4)GlcNAc(b1-3)Gal(b1-4)GlcNAc(b1-2)Man(a1-3)[Neu5Gc(a2-3)Gal(b1-4)GlcNAc(b1-3)Gal(b1-4)GlcNAc(b1-2)Man(a1-6)]Man(b1-4)GlcNAc(b1-4)GlcNAc
How it was run: as §1

[21] = target: Neu5Gc(a2-3)Gal(b1-4)[Fuc(a1-3)]GlcNAc
How it was run: as §1

[22] = target: Neu5Gc(a2-6)Gal(b1-4)GlcNAc
How it was run: as §1

Neu5Gc(a2-6)GalNAc = target: Neu5Gc(a2-6)GalNAc
How it was run: as §1

[23] = target: Neu5Gc(a2-8)Neu5Ac(a2-3)Gal(b1-4)GlcNAc
How it was run: as §1

[24] = target: Neu5Gc(a2-8)Neu5Gc(a2-3)Gal(b1-4)GlcNAc
How it was run: as §1

[25] = target: Neu5Gc(a2-8)Neu5Gc(a2-3)Gal(b1-4)GlcNAc(b1-3)Gal(b1-4)GlcNAc
How it was run: as §1

[26] = target: Neu5Gc(a2-8)Neu5Gc(a2-6)Gal(b1-4)GlcNAc
How it was run: as §1

[27] = target: Neu5Gc(b2-6)Gal(b1-4)GlcNAc
How it was run: as §1

B1: ClecSol-Fc (Cryptosporidium parvum) (protein)
chain: CPEGWISNGEKTRCFKLVTFDRPRTFSHGFKACNDLGGTEVETRRRNGSKETNEYPVTLASVYKLSDEEAIRRTLVEQGDIHKTANGCFVGLRKYAFFRYPPGWYWIDSGSPVSVRDSEINWTSSYNASWLLRFKFPFEKCGFFDIGGLGRRPCWLIDSELSCAVCGTVAYDSGGLNPNKYSELIKQTDEIISKEPKLDLPGYNNLNCTDAWENNLSVGLCQNVSNILDSAWSSYQSSLNFPSINFNWKEDSTNEGGDQVYHNSYLDLPRYKQKKTFYWDQDPGTIPALSDEMKLIGLSAQPTYHPLDRSSSGSFESDSTESGRANEERNDTLEEMIYKQSSDSIEDILVPVTKPIFSDYSSIGRNSGVEEVYSSNVSTISSKGVVFPNTTTSSDNDFTKNNPANSSKHTSTSTTTNTTTTTTRTTTTTTTTTTTTTTTTTTTTETTTTKKSTTATKNTTTT
glycan array binding signal (z-score) (Neu5Ac(a2-8)Neu5Ac): -0.178
glycan array binding signal (z-score) [1]: -0.038
glycan array binding signal (z-score) [2]: -0.207
glycan array binding signal (z-score) [3]: -0.089
glycan array binding signal (z-score) [4]: -0.175
glycan array binding signal (z-score) [5]: -0.229
glycan array binding signal (z-score) [6]: -0.186
glycan array binding signal (z-score) [7]: 0.518
glycan array binding signal (z-score) [8]: 0.011
glycan array binding signal (z-score) [9]: 0.212
glycan array binding signal (z-score) [10]: -0.283
glycan array binding signal (z-score) [11]: -0.223
glycan array binding signal (z-score) [12]: -0.068
glycan array binding signal (z-score) [13]: -0.062
glycan array binding signal (z-score) (Neu5Ac(b2-6)GalNAc): -0.003
glycan array binding signal (z-score) [14]: -0.233
glycan array binding signal (z-score) [15]: 0.02
glycan array binding signal (z-score) [16]: -0.207
glycan array binding signal (z-score) [17]: 0.394
glycan array binding signal (z-score) [18]: -0.069
glycan array binding signal (z-score) (Neu5Gc(a2-3)Gal(b1-4)Glc): -0.04
glycan array binding signal (z-score) [19]: -0.119
glycan array binding signal (z-score) [20]: -0.214
glycan array binding signal (z-score) [21]: -0.11
glycan array binding signal (z-score) [22]: -0.12
glycan array binding signal (z-score) (Neu5Gc(a2-6)GalNAc): -0.108
glycan array binding signal (z-score) [23]: -0.03
glycan array binding signal (z-score) [24]: -0.109
glycan array binding signal (z-score) [25]: -0.075
glycan array binding signal (z-score) [26]: 0.219
glycan array binding signal (z-score) [27]: -0.202
